# In PubChem BioAssay AID686979 (National Center for Advancing Translational Sciences (NCATS), 2013):
# About 50,000 (12%) of roughly 420,000 compounds were called active. The inconclusive results got no clear call from the source; some entries with a clear call stand among them for comparison. Calls come from the whole dose curve; as a rule, active = well fitted inhibition curve with a large enough effect; inconclusive = small, poorly fitted or top-dose-only effect; inactive = flat fitted curve, though single readings scatter. No potency is given beside an inconclusive call; the fits are too rough.
# Assay: qHTS for Inhibitors of human tyrosyl-DNA phosphodiesterase 1 (TDP1): qHTS in cells in presence of CPT; note: nearly all actives have a fitted effect of over 55% in size
# Settings: chicken DT40 Tdp1-/-;hTDP1 cells + 20 nM CPT, ATP luminescence, 48 h; activity change, negative = growth inhibition: at 46.2 µM (top of the series)
# In short: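 Chicken DT40 Tdp1-/- cells complemented with human TDP1, 400 cells/well, exposed to compounds plus 20 nM camptothecin for at least 48 h at 37 C; viability read as ATP content by CellTiter-Glo luminescence.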
# % is set by controls: 0 for no effect and ±100 for the full control effect; potency is the fitted concentration of half-maximal effect; tags give direction and shape of the fitted curve.
SMILES,Potency,"activity change, negative = growth inhibition"
Cc1cccc2sc(NC(=O)C3c4ccccc4Oc4ccccc43)nc12,active: 11.6 µM,
COCC(C)n1c(SCC(=O)NC(=O)NCc2ccccc2)nc2ccccc2c1=O (centres undefined),inactive,
Cc1cc(C)cc(C(=O)N(NC(=O)Nc2ccc(Cl)cc2)C(C)(C)C)c1,active: 14.6 µM,
Cc1cccc([C@@H]2[C@@H]3C(=O)N(Cc4ccccc4)C(=O)[C@@H]3[C@]3(CC(C)C)C(=O)N(c4cccc(F)c4)C(=O)N23)c1,"inconclusive [inhibitor, single point]",
CN(C)CCCNC(=O)C[C@H]1C[C@H](C(=O)N2CCCCC2)[C@@]2(CCc3ccccc3)c3[nH]c4cc(-c5ccco5)ccc4c3CCN2C1=O,"inconclusive [inhibitor, single point]",
Clc1ccc(-n2nnnc2SCc2c(-c3ccccc3)nc3sccn23)cc1,"inconclusive [inhibitor, single point]",
Cc1ccc(Cl)cc1NC(=O)CN1C(=O)C(C)(C)c2cc(S(=O)(=O)N3CCCCC3)ccc21,"inconclusive [inhibitor, single point]",
C=CCNC(=S)NNC(=O)c1cccc(Br)c1,"inconclusive [inhibitor, single point]",
O=C(COC(=O)c1cccc(C(=O)OCC(=O)c2ccc(Br)cc2)n1)c1ccc(Br)cc1,active: 16.4 µM,
C=CCSc1nc2c(c(=O)[nH]c(=O)n2C)n1C/C=C(/C)Cl,"inconclusive [inhibitor, partial curve, poor fit]",
CN(C)c1ccc(/C=C(/NC(=O)c2ccccc2)C(=O)N2CCCC2)cc1,"inconclusive [inhibitor, partial curve]",
O=C1Nc2ccc(Cl)cc2[C@@](C#CC2CC2)(C(F)(F)F)O1,"inconclusive [inhibitor, single point]",
C=CCN1[C@@H](C(C)C)COCCS1(=O)=O,inactive,
Cc1cc(=O)c2c(O)cc(O)c(C)c2o1,"inconclusive [inhibitor, single point]",
CC1=C(N2CCOCC2)CCC1=O,inactive,
Cc1cc2c(cc(C(=O)OC(C)C(=O)NCc3ccc(F)cc3)n2C)o1 (centres undefined),inactive,
CC(C)CCN(C(=O)Nc1ccc(Cl)c(Cl)c1)C(C)c1cccs1 (centres undefined),"inconclusive [inhibitor, single point]",
CN(C)S(=O)(=O)c1ccc2nc(NC(=O)c3cccs3)sc2c1,"inconclusive [inhibitor, single point]",
O=C(NNC(=O)c1ccc(Cl)c(Cl)c1)c1ccncc1,inactive,
COc1ccc(N2CCN(S(=O)(=O)c3cc4c(cc3C)N(C(C)=O)CCO4)CC2)cc1,inactive,
CCOc1ccccc1NC(=O)C(C)N(c1ccccc1)S(C)(=O)=O (centres undefined),"inconclusive [inhibitor, partial curve]",
COC(=O)[C@]12CCCCC=C1N(CCc1ccc(OC)c(OC)c1)C(=O)[C@H](CC(=O)NCc1ccc(OC)c(OC)c1)C2,active: 29.1 µM,
CCOC(=O)c1c(C)[nH]c(C(=O)OCc2ccc([N+](=O)[O-])cc2)c1C,"inconclusive [inhibitor, single point]",

SMILES,Potency,"activity change, negative = growth inhibition"
COc1ccc(Br)cc1CNc1ccccc1,"inconclusive [inhibitor, single point]",
Cc1cccc(Cc2c(C)nc3nc(SCC(=O)NCc4ccco4)nn3c2C)c1,"inconclusive [inhibitor, single point]",
Cc1ccc(/C=C2\Sc3ccccc3C2=O)s1,"inconclusive [inhibitor, single point]",
CCc1ccc2c(c1)NC(c1ccc(OC)cc1)=NC(c1ccncc1)=N2,"inconclusive [inhibitor, single point]",
CCOC(=O)c1ccc(OC(=O)c2cn(-c3cccc(OC)c3)c(=O)c3ccccc23)cc1,"inconclusive [inhibitor, single point]",
Cc1ccc(CC(=O)NC2CCCc3ccccc32)cc1C (centres undefined),"inconclusive [inhibitor, single point]",
O=C(O)c1ccc(NC2=C/C(=N/S(=O)(=O)c3ccccc3)c3ccccc3C2=O)cc1,active: 2.59 µM,
Cc1cc(OCc2cc(C(=O)NCC3(C)COC3)no2)cc(C)c1Cl,"inconclusive [inhibitor, single point]",
Cc1ccc(Cn2c(=S)[nH]c3ccc(N4CCOCC4)cc3c2=O)o1,"inconclusive [inhibitor, single point]",
COc1ccc(N2C(=S)N=C(Nc3cccc(C)c3)C23CCCCC3)cc1,active: 6.51 µM,
Cc1ccc2c(c1)N(CCCC(=O)NCc1cccc(F)c1)C(=O)CO2,"inconclusive [inhibitor, partial curve]",
O=C(c1c(F)cccc1F)N1CCN(CCOc2ccccc2)CC1,inactive,
COc1ccc(N=Cc2c(O)c3ccccc3n2C(C)=O)cc1,"inconclusive [inhibitor, single point]",
O=C(CSc1nnnn1-c1ccc(Cl)cc1)NC1CCS(=O)(=O)C1 (centres undefined),inactive,
c1ccc(-c2cn3cccnc3n2)cc1,inactive,
CSc1ncc(C(=O)N2CCN(c3cccc(C(F)(F)F)c3)CC2)c(C)n1,"inconclusive [inhibitor, partial curve, poor fit]",
O=C(NC(N1CCOCC1)C(Cl)(Cl)Cl)c1ccco1 (centres undefined),,inconclusive: -25.2% [inhibitor]
O=C1CC(SCc2nc3ccccc3[nH]2)C(=O)N1c1cccc(Cl)c1 (centres undefined),"inconclusive [inhibitor, single point]",
COc1ccccc1S(=O)Cc1ccc(C(=O)NCc2ccccc2Cl)o1 (centres undefined),active: 16.4 µM,
COc1ccc(/C=N/n2cnn(Cc3ccccc3Cl)c2=S)cc1OC,"inconclusive [inhibitor, single point]",
CCC(CC)C(=O)Nc1ccc(Nc2ccccc2)cc1,"inconclusive [inhibitor, single point]",
CC(C)Cn1c(N)c(C(=O)COC(=O)[C@H](C)NC(=O)c2ccccc2Cl)c(=O)n(C)c1=O,"inconclusive [inhibitor, single point]",
Oc1cccc(NC(=S)N=Nc2c(O)[nH]c3ccc(Br)cc23)c1,"inconclusive [inhibitor, single point]",

SMILES,Potency,"activity change, negative = growth inhibition"
O=C(CCCC(=O)N(c1ccc(F)cc1)C(C(=O)NC1CCCC1)c1ccc(O)cc1)Nc1ccccn1 (centres undefined),"inconclusive [inhibitor, partial curve, poor fit]",
CC(C)(C)C(=O)Nc1nnc(-c2ccncc2)o1,inactive,
COc1cccc(C(=O)Oc2c(Br)cc(Br)cc2/C=N/NC(=O)c2cc(C)[nH]n2)c1,active: 6.51 µM,
COc1ccc(NC(=O)C(NC(=O)/C=C\c2ccc3c(c2)OCO3)c2ccccc2)cc1 (centres undefined),"inconclusive [inhibitor, single point]",
COC(=O)c1c(NC(=O)COC(=O)[C@@H](NS(=O)(=O)c2ccc(C)cc2)C(C)C)sc2c1CCC2,"inconclusive [inhibitor, single point]",
O=C(Nc1ccccc1N1CCOCC1)c1cc(-c2ccncc2)nc2ccccc12,active: 11.6 µM,
CCCCCNC(=O)C1CCC(Cn2c(=S)[nH]c3ccccc3c2=O)CC1 (centres undefined),inactive,
COc1ccc(NC(=O)N(Cc2cccnc2)Cc2ccccc2Cl)c(OC)c1,active: 18.4 µM,
Cc1coc2cc3oc(=O)c(CCC(=O)NCCCn4ccnc4)c(C)c3cc12,"inconclusive [inhibitor, single point]",
COc1cc(/C=N\NS(=O)(=O)c2ccccc2)cc(OC)c1OC,inactive,
C#CCNC(=O)C[C@@H]1C[C@@]2(C(=O)OCC)CCCC=C2N(Cc2cccc3ccccc23)C1=O,"inconclusive [inhibitor, single point]",
COc1cc(CC(=O)OCC(=O)c2c[nH]c3ccccc23)cc(OC)c1OC,"inconclusive [inhibitor, single point]",
Cc1ccc(NC(=O)CN(C)C(=O)CSc2nnc(C(F)(F)F)n2C)cc1,inactive,
CCOC(=O)c1ccc(NCc2ccncc2)cc1,"inconclusive [inhibitor, single point]",
CC(C)Oc1ccc(NC(=O)Oc2ccccc2)cc1,"inconclusive [inhibitor, single point]",
COc1ccc(-c2cn(/N=C/c3ccc(Cl)cc3Cl)c(N)n2)cc1,active: 23.1 µM,
Cc1cc(NC(=O)c2ccc(NC(=O)C(C)C)cc2)no1,"inconclusive [inhibitor, single point]",
CC(C)C1C(=O)N(Cc2cn(CCC3OCCO3)nn2)CCS(=O)(=O)N1Cc1ccc(-c2ccccc2)cc1 (centres undefined),"inconclusive [inhibitor, single point]",
O=C(Cn1cc([N+](=O)[O-])cn1)NCc1ccc(-n2cccn2)cc1,inactive,
Cc1cc(F)ccc1S(=O)(=O)Nc1ccccc1C(=O)Nc1ccccc1N1CCOCC1,"inconclusive [inhibitor, single point]",
CCOC(=O)N1CCN(C(=O)c2ccc3c(c2)N=C(CC)c2cc(C)ccc2S3)CC1,active: 16.4 µM,
COc1ccc(C2N3CC4(C)CN2CC(c2ccccc2)(C3)C4=O)cc1OC (centres undefined),inactive,
CN(CC(=O)Nc1ccccc1C(F)(F)F)C(=O)CCc1nc2sc3c(c2c(=O)[nH]1)CCCC3,"inconclusive [inhibitor, single point]",
